Out of some 410,000 compounds screened, about 1,200 (0.29%) were called active. The inconclusive results got no clear call from the source; some entries with a clear call stand among them for comparison. Calls follow the shape of the dose curve; as a rule, active = well fitted activation curve with a large enough effect; inconclusive = small, poorly fitted or top-dose-only effect; inactive = flat fitted curve, though single readings scatter. Potencies beside an inconclusive call are fits to weak or partial responses and may not hold up.
Assay: qHTS of Nrf2 Activators; also: nearly all actives have a fitted effect of over 65% in size
Conditions: AREc32 ARE-luciferase reporter (MCF7-derived line), luminescence, 24 h; activation: at 46.1 µM (top of the series)
Source text: Many diseases have some form of oxidative stress injury and ties to inflammation, causing a host of problems for the patient. The antioxidant response element (ARE) plays an important role in alleviating the harmful effects of oxidative stress. The antioxidant response element (ARE) is a transcriptional regulatory element involved in the activation of genes coding for a number of antioxidant proteins and detoxifying enzymes. These enzymes work in concert to protect tissues from oxidative insults and chemical toxicities in human hepatocytes and immune cells. The protective effects of ARE activation are primarily triggered through Nrf2 (NF-E2-related factor) binding to and activating AREs. It is known that Nrf2 controls the production of over 250 antioxidant and detoxification proteins (Hu et al., 2006), thereby protecting tissues by increasing cellular antioxidant content and suppressing inflammatory signaling pathways. The transcription factor Nrf2 is a central link between oxidative chemicals, such as phenolic antioxidants and electrophilic compounds, and the activation of ARE. Nrf2 levels are constitutively low as a consequence of its interaction with Keap1, which targets its degradation (Zipper and Mulcahy, 2002). Electrophiles react with key cysteine residues in Keap1, releasing Nrf2 and allowing its translocation to the nucleus. Once within the nucleus, Nrf2 complexes with coactivators such as p300, and binds to the AREs to induce gene transcription of cytoprotective enzymes, resulting in the prevention of toxicity. Activation of Nrf2 protects tissues by increasing cellular antioxidant content and suppressing inflammatory signaling pathways. Identifying novel and potent Nrf2 activators by using the AREc32 cell line to detect ARE activation by small molecules will lead to the identification and development of probes to study protective pathways in multiple tissues. These specific probes are essential to study the ARE pathway, and eventually to determine whether this pathway does activate genes that could protect against a host of diseases, including cardiovascular diseases, obesity, diabetes, Alzheimer's, and Parkinson's disease.
This project's aim is to identify novel and potent Nrf2 activators by using the AREc32 cell line to detect ARE activation by small molecules, which will lead to the identification and development of probes to study the ARE pathway.
NIH Chemical Genomics Center [NCGC]
NIH Molecular Libraries Probe Centers Network [MLPCN]
Assay Submitter (PI): Curtis Klaassen, University of Kansas Medical Center
5 uL of 1000 cells/well of AREc32_Fluc cells are seeded into 1536-well plate in OPTI-MEM medium with 5% FBS. The plates are incubated overnight at 37 deg C with 5% CO2. Then through pin tool transfer, 23 nL of compounds are added to each well before a 24 hr incubation at 37 deg C with 5% CO2. After the addition of 2.5 uL of Steady-Glo. the plates are kept at RT for 30 min, before they are read on the ViewLux.
Potency is read from the fitted curve at half-maximal effect; tags tell the direction and shape of the fitted curve.

| Structure (SMILES) | Potency |
| --- | --- |
| N#Cc1c(-c2cccs2)cc(C2CC2)nc1SCC(N)=O | inactive |
| O=C1c2ccccc2[C@@H]2Cc3csc[n+]3[C@H]12 | inconclusive: 31.6 µM [activator, single point] |
| COc1ccc(C(c2c(O)ccc3ccccc23)N2CCOCC2)c(OC)c1 (stereo not given) | inconclusive: 17.8 µM [activator, single point] |
| Brc1cccc(-c2nc3ccc(Br)cn3c2Cc2ccsc2)c1 | inconclusive: 11.2 µM [activator, partial curve] |
| C(=N\N=C\c1cccs1)/c1cccs1 | inconclusive: 12.6 µM [activator, partial curve, poor fit] |
| CC(C)(C)c1nc(SCC(=O)NNC(=O)c2ccccc2)c2ccccc2n1 | inconclusive: 28.2 µM [activator, single point] |
| Cc1cc(C)nc(NC(=O)c2ccc(Cl)c([N+](=O)[O-])c2)n1 | inconclusive: 14.1 µM [activator, partial curve, poor fit] |
| O=C(NCCCN1CCCC1=O)c1ccc([N+](=O)[O-])s1 | inconclusive: 17.8 µM [activator, single point] |
| O=C(NN=Cc1cccc([N+](=O)[O-])c1)c1cccc2ccccc12 | inconclusive: 2.24 µM [activator, full curve] |
| CCc1nnc(NC(=O)C2CCN(C(=O)c3ccco3)CC2)s1 | inactive |
| COc1cc(C=C(c2nc3ccccc3s2)c2nc3ccccc3s2)ccc1O | inconclusive: 6.31 µM [activator, partial curve] |
| COc1ccc(N2C(=O)/C(=C\c3ccco3)N=C2SCC(N)=O)cc1Cl | inconclusive: 7.08 µM [activator, partial curve, poor fit] |
| COC(=O)C1=C(C)N(Cc2ccco2)C(=O)/C1=C\c1ccc([N+](=O)[O-])cc1 | inconclusive: 17.8 µM [activator, single point] |
| COc1ccc(C(C)=O)cc1OCc1ccccc1 | inconclusive: 10 µM [activator, partial curve, poor fit] |
| O=C(CSCc1ccccc1F)NCc1ccccc1 | inactive |
| O=C(CSc1ccc(-c2ccco2)nn1)N1CCCC1 | active: 10 µM |
| CN(C)/C=C/C(=O)/C=C/c1ccc(Cl)cc1 | inconclusive: 25.1 µM [activator, single point] |
| O=C(/C=C/c1cccc(Br)c1)c1ccc2c(c1)OCO2 | inconclusive: 22.4 µM [activator, single point] |
| COc1ccccc1C1NC=C([N+](=O)[O-])C=C1[N+](=O)[O-] (stereo not given) | inactive |
| Cc1cccc(/C(N)=N/OC(=O)c2ccco2)c1 | inconclusive: 12.6 µM [activator, partial curve, poor fit] |
| COc1ccc(C(=O)Nc2ccccc2C(=O)N/N=C/c2ccco2)cc1 | inconclusive: 2.82 µM [activator, full curve, poor fit] |
| C(=N\n1cnc2ccccc21)/c1cccnc1 | inactive |
| COCCCn1cc(CN2CC(N3CCCCC3)CS2(=O)=O)nn1 (stereo not given) | inactive |
| COc1ccc(-c2oc(NC(=O)CCl)c(C#N)c2-c2ccc(OC)cc2)cc1 | inconclusive: 15.8 µM [activator, single point] |

| Structure (SMILES) | Potency |
| --- | --- |
| CC(=O)C1=C(O)C(=O)N(c2ccc(O)cc2)C1c1ccccc1Cl (stereo not given) | inactive |
| Fc1cc(Br)ccc1NC(=S)Nc1ccccc1 | inactive |
| C=CC(=O)NC(NC(=O)C=C)c1ccc(Br)cc1 | inconclusive: 31.6 µM [activator, single point] |
| CNS(=O)(=O)c1ccc2nc(NC(=O)/C=C/c3ccco3)sc2c1 | inconclusive: 7.94 µM [activator, partial curve, poor fit] |
| Cc1[nH][nH]c(=O)c1C(c1c(C)[nH][nH]c1=O)c1cn(Cc2cccc3ccccc23)c2ccccc12 | inconclusive: 15.8 µM [activator, single point] |
| Cc1ccc2[nH]c(=O)c3cc(C(=O)N(C)Cc4ccco4)sc3c2c1 | inconclusive: 5.62 µM [activator, full curve] |
| Cc1ccc2nc(-c3ccco3)c(CC(C)(C)C)n2c1 | inconclusive: 20 µM [activator, single point] |
| COc1ccc2c(c1)[nH]c1c(N3CCSCC3)ncnc12 | inactive |
| CCOC(=O)c1ccc(-c2c(-c3ccccc3OC)sc3ccc(OC)cc23)cc1F | inconclusive: 20 µM [activator, single point] |
| OC(Cc1cccc(C=NN2CCOCC2)n1)(C(F)(F)F)C(F)(F)F | inactive |
| CCOC(=O)C1CCCN(Cc2nc(N)nc(Nc3ccc(OC)cc3)n2)C1 (stereo not given) | inactive |
| COc1ccc(N2CCCC2)c(NC(=O)c2ccc([N+](=O)[O-])o2)c1 | inconclusive: 7.08 µM [activator, full curve, poor fit] |
| COc1ccc(CCNC(=O)/C=C/c2ccco2)cc1 | inconclusive: 22.4 µM [activator, single point] |
| O=C(O)CNc1nc(Cl)ccc1[N+](=O)[O-] | inconclusive: 15.8 µM [activator, single point] |
| Cc1cnnc2ccc3c(no[n+]3[O-])c12 | inconclusive: 14.1 µM [activator, single point] |
| CC(C)(C)c1csc(NC(=O)c2c(F)c(F)c(F)c(F)c2F)n1 | inconclusive: 31.6 µM [activator, single point] |
| COc1ccc(Cl)cc1NC(=O)CCCS(=O)(=O)c1nc(-c2ccc(OC)c(OC)c2)cc(C(F)(F)F)n1 | inconclusive: 3.98 µM [activator, single point] |
| Cc1cc(C)n2c(Nc3cccc(C(F)(F)F)c3)c(-c3ccsc3)nc2n1 | inactive |
| CCOC(=O)C1CCCN(C(=O)CNS(=O)(=O)c2ccc(Br)s2)C1 (stereo not given) | inactive |
| Cc1ccc(NC(=O)COCc2cc(-c3cccs3)on2)cc1Cl | active: 7.08 µM |
| COC(=O)CC1(C(=O)OC)Oc2ccc(Br)cc2C(=O)N1c1cc(Cl)c(Cl)cc1Cl (stereo not given) | inactive |
| Cc1cc(O)c(C(C)C)cc1N=Nc1ccccc1C(=O)O | inconclusive: 14.1 µM [activator, single point] |
| O=[N+]([O-])c1cc2c(c3cccnc13)COCO2 | inconclusive: 22.4 µM [activator, single point] |
| COC(=O)c1cc(C)nc(Nc2nc(C(N)Cc3ccc(Cl)cc3)cs2)n1 (stereo not given) | inactive |

| Structure (SMILES) | Potency |
| --- | --- |
| N#CC1=C(N)n2c(s/c(=C\c3cccs3)c2=O)=C(C#N)C1c1cccs1 (stereo not given) | inconclusive: 22.4 µM [activator, single point] |
| COc1ccc(NC(=O)C(NS(=O)(=O)c2cccc3nsnc23)c2ccccc2)cc1 (stereo not given) | inactive |
| Cc1ccc(NC(=O)c2ccco2)c([N+](=O)[O-])c1 | active: 11.2 µM |
| Cn1c(CCN2CCCCCC2)nc2cc(NC(=O)Nc3ccccc3)ccc21 | inconclusive: 20 µM [activator, single point] |
| CCCC[n+]1ccn(C2=C([O-])c3ccccc3C(=O)/C2=N\S(=O)(=O)c2ccc(Br)cc2)c1 | inactive |
| O=C1[C@H]2[C@@H](C(=O)N1c1cccc3ccccc13)C1(C(=O)c3ccccc3C1=O)N1CCC[C@@H]21 | inconclusive: 31.6 µM [activator, single point] |
| O=C(O)c1ccc2c(=O)n3c(nc2c1)/C(=C/c1cccc(Cl)c1Cl)CC3 | inconclusive: 2.24 µM [activator, full curve] |
| O=C(Nc1cccc([N+](=O)[O-])c1)C1C2CCCCC21 (stereo not given) | inconclusive: 12.6 µM [activator, partial curve, poor fit] |
| COc1cc2cc(CN(CCc3ccccc3C)C(=S)NCCCN(C)C)c(=O)[nH]c2cc1OC | inactive |
| CC(C)C[C@H]1C(=O)N2CCC[C@H]2[C@]2(O)O[C@](NC(=O)C3C=C4c5cccc6[nH]c(Br)c(c56)C[C@H]4N(C)C3)(C(C)C)C(=O)N12 (stereo not given in full) | inactive |
| O=C(c1cccc(Cl)c1)N1CCN(c2ccc3c(c2)C2CC3CCN2C(=O)OCc2ccccc2)CC1 (stereo not given) | inactive |
| CCOC(=O)c1c(C)nc(-c2ccccc2)nc1NC(=O)C(C)C | inconclusive: 15.8 µM [activator, single point] |
| COc1ccc(-c2cc(=O)oc3c(C)c(O)ccc23)cc1 | inactive |
| BrC(=C\c1ccccc1)/C=N/Nc1ccc2nncn2n1 | inconclusive: 20 µM [activator, single point] |
| O=C1c2cccc3cccc(c23)C(=O)N1CCc1ccccc1 | inconclusive: 1.58 µM [activator, full curve, poor fit] |
| O=S(c1ccc2ccccc2c1)c1cnns1 (stereo not given) | inconclusive: 3.55 µM [activator, partial curve, poor fit] |
| O=C(c1ccccc1)c1cn[nH]c1-c1ccccc1O | inactive |
| COc1cc(OC)cc(-c2nnc(NC(=O)CCS(=O)(=O)c3ccc(C)cc3)o2)c1 | inconclusive: 22.4 µM [activator, single point] |
| C[C@@H]1CC[C@@]23COC(=O)C2=CCC[C@@H]3[C@@]1(C)CC/C(=C/CO)CO | inconclusive: 31.6 µM [activator, single point] |
| Cc1cccc(Nc2nc(-c3ccc(F)c(C)c3)cs2)n1 | inconclusive: 5.01 µM [activator, partial curve] |
| COc1ccc(Br)cc1/C=C/C(=O)OCC(=O)NCCc1ccc(S(N)(=O)=O)cc1 | inconclusive: 15.8 µM [activator, single point] |
| CC(=O)Nc1sc(N/N=C\c2ccccc2Cl)nc1-c1cccs1 | inconclusive: 22.4 µM [activator, single point] |

Source: PubChem BioAssay AID624171 (National Center for Advancing Translational Sciences (NCATS), 2012)
